According to PubChem BioAssay AID488969 (Vanderbilt High Throughput Screening Facility, 2010):
In all, about 110,000 compounds were measured (“z-score”: median about -0.1, highest 2% from about 2 on). This is one part of the list. Active and inactive are the calls of the source.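 Rule for the calls: active = z-score in the third read window above 3 or below -3; inactive = the rest.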

These compounds were tested against Metabotropic glutamate receptor 8 (Rattus norvegicus) (UniProt P70579) (assay: mGluR8 Gi/Go-coupled signaling modulation – cell-based, rat, thallium flux, HTS, primary screen (AID 488969)). Conditions: HEK293 rat mGluR8, GIRK (G protein-gated inwardly rectifying potassium channel) thallium flux, FluoZin2; at 10 µM; stronger effect = higher value; submaximal glutamate (EC20) added with thallium.
UniProt P70579, sequence (P70579 whole entry, looked up): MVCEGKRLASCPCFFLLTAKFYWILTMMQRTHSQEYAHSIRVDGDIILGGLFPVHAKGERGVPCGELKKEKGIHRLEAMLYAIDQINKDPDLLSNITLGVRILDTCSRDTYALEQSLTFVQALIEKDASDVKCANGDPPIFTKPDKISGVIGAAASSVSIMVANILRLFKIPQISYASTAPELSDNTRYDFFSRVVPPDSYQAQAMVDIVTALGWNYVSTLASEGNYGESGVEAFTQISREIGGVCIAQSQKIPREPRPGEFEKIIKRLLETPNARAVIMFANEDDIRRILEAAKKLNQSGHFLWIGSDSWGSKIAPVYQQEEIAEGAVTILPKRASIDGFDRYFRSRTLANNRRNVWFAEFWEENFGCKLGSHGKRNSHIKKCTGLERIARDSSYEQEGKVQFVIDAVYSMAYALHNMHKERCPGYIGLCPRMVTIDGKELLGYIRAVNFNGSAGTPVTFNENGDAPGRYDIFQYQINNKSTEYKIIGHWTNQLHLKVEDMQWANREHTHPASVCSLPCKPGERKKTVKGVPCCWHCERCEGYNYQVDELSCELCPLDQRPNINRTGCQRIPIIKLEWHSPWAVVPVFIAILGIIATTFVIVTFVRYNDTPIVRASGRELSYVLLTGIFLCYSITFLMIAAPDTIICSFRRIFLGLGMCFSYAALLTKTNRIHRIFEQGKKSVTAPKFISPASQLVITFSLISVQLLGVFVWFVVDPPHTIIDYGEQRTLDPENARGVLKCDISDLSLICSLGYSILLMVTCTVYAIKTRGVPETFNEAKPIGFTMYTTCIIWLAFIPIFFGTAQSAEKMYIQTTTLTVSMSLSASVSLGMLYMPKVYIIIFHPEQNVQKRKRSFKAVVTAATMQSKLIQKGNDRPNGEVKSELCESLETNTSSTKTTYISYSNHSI

SMILES | z-score
CC(OC(=O)c1cc2sccc2n1C)C(=O)NCc1ccc(F)cc1 (stereo not drawn) | -0.188
CCc1c(C)nc2c(C#N)c[nH]n2c1=O | -2.49
Nc1scc(-c2ccncc2)c1Cl | -0.259
CC(C)(C)c1cc(NC(=O)CSc2nnc(NCc3ccccc3)s2)n(-c2ccccc2)n1 | -0.496
Cc1ccc2nc(-c3cccnc3)c(NC3CCCCC3)n2c1 | 0.317
O=C(NCCC1=CCCCC1)C(c1ccccc1)c1ccccc1 | -0.184
O=C(c1ccc(COc2ccc3ccccc3c2)o1)N1N=C(C(F)F)CC1(O)C(F)F (stereo not drawn) | -0.0748
Cc1ccc(NC(=S)NCCN2CCOCC2)cc1C | -0.114
C=CCn1c(SCC(=O)Nc2cccc(C(=O)OC)c2)nnc1C(C)NC(=O)c1cccs1 (stereo not drawn) | -1.55
Cc1cc(NC(=O)c2cncc(Br)c2)n(-c2ccccn2)n1 | -0.0687
CCOC(=O)CSc1nc2ccccc2c(=O)n1CC1CCC(C(=O)NCc2ccco2)CC1 (stereo not drawn) | -0.605
N#Cc1cccc(NC(=O)CN2NS(=O)(=O)c3ccccc3C2=O)c1 | -0.0578
CCN1C(=O)C(F)(CC)C(=O)c2ccccc21 (stereo not drawn) | -0.156
COc1ccc(NC(=S)N2CCC(C(O)(c3ccccc3)c3ccccc3)CC2)cc1 | 0.263
COc1ccc(NC(=O)CCSc2cc(C)c3ccccc3n2)cc1 | -2
O=C(COc1cnc2ccccc2n1)NCCC1=CCCCC1 | 0.0998
Cn1c(C(=O)N2CCN(C(=O)c3ccco3)CC2)cc2c(=O)n(C)c3ccccc3c21 | -0.0609
Cc1ccccc1CS(=O)(=O)CCC(=O)N1CCN(c2ccc(N3CCOCC3)nn2)CC1 | 0.315
O=C(CSc1n[nH]c(=O)[nH]c1=O)c1ccccc1 | 0.109
COc1ccccc1NC(C#N)c1ccccc1OCc1ccccc1 (stereo not drawn) | -0.0312
Cc1cc2n(n1)C(c1ccc3c(c1)OCO3)Nc1ccccc1-2 (stereo not drawn) | -0.00219
COc1ccc(-c2occ(C(=O)O)c2C(=O)O)cc1 | 0.0956
O=S(=O)(c1ccccc1)N1CCN(Cc2ccccc2C(F)(F)F)CC1 | 0.0237
Cc1cc(C(=O)NC2CCCc3ccccc32)c(C)o1 (stereo not drawn) | -0.62
O=C(CC(=O)NCc1cccnc1)NCc1cccnc1 | 0.454

SMILES | z-score
CC(=O)Nc1c(C(=O)O)oc2ccc(Cl)cc12 | 1.18
CCC(CO)n1c(SCc2cc([N+](=O)[O-])cc3c2OCOC3)nc2ccccc2c1=O (stereo not drawn) | -0.473
O=C(NCCNC(=O)c1cc(OCC(F)(F)F)ccc1OCC(F)(F)F)Nc1cccc(C(F)(F)F)c1 | -0.607
O=C(CSc1nc2ccccc2c(=O)[nH]1)N1CCN(S(=O)(=O)c2ccccc2)CC1 | -0.0737
COc1ccc2nc(N3C(=O)/C(=C/c4ccc(Cl)cc4)NC3=S)sc2c1 | active: 6.84
COc1cccc(-c2cc3nc4c(c(N5CCC6(CC5)OCCO6)n3n2)CCCC4)c1 | -0.356
O=C(CCCN1C(=O)c2ccccc2C1=O)NCCC1=CCCCC1 | -0.0374
COc1cc(NC(=O)c2cc3ccccc3o2)c(OC)cc1Cl | 0.325
CCn1cc(C(=O)OCC(=O)Nc2cc(S(=O)(=O)N(C)C)ccc2C)c(=O)c2ccc(C)nc21 | -0.956
CCCN1C(=O)c2cc(C(=O)NC3CCCCCC3)ccc2C1O (stereo not drawn) | 0.026
CCOc1ccc(C2NC(=O)c3n[nH]c(C)c32)cc1 (stereo not drawn) | 0.931
CC(C)(C)C1CCc2c(sc3nc(SCC(N)=O)nc(N)c23)C1 (stereo not drawn) | -0.548
COc1ccc(CCNC(=O)CSC2=Nc3ccccc3C3=NC(C(C)C)C(=O)N23)cc1OC (stereo not drawn) | 0.857
Nc1ccc2c(c1)C(=O)N(CCCCCC(=O)O)C2 | 0.116
O=C1c2ccccc2-c2c1cccc2C(=O)N1CCCCC1 | -0.115
c1ccc(NCCCNc2ccccc2)cc1 | -1.37
CCOC(=O)N1CCN(Cc2ccc(F)cc2F)CC1 | -0.33
CSc1nc(N)c(C#N)c(-c2ccc(Cl)cc2)c1C#N | -0.591
c1csc(CSc2nnc3sc4ccccc4n23)c1 | -2.2
COCCNC(=O)c1onc(CSc2ccccc2)c1C(=O)O | 0.0648
CC(=O)Nc1cc(OC(=O)c2ccco2)cc(OC(=O)c2ccco2)c1 | -0.29
CC(=O)NC1CC2CCCC(C1)N2CC(=O)NCc1ccc(F)cc1 (stereo not drawn) | -0.661
N#CC1=C(N)Oc2c(ccc3ccccc23)C1c1ccsc1 (stereo not drawn) | -0.0758
O=c1c2ccccc2nnn1CSc1nnnn1-c1ccccc1 | -0.0586
C/C(=N\NS(=O)(=O)c1ccc(C)cc1)c1cccs1 | 0.236

SMILES | z-score
O=C(COC(=O)c1ccc(Br)o1)NCCCc1ccccc1 | 0.403
Cc1ccc(N(C)C(=O)N2CCN(S(=O)(=O)c3ccc4ccccc4c3)CC2)cc1 | 0.00301
CCC(c1nc2ccccc2c(=O)n1CCN1CCOCC1)N1C(=O)c2ccccc2C1=O (stereo not drawn) | -0.114
NC(=O)c1ccc(-n2nnnc2Oc2ccccc2C(=O)N2CCOCC2)cc1 | 0.608
CCCCS/C(N)=N/N=C/c1cc(C)ccc1O | -0.074
COC(=O)c1c(C#N)c(N)nc2c1CCCC2 | 0.28
CCOc1ccc(S(=O)(=O)NCCSCc2ccco2)cc1 | 0.163
CN(C)CCCNC(=O)/C(=C\c1ccc(-c2ccc(Br)cc2)o1)NC(=O)c1ccccc1 | -0.228
Cc1nc2ccccc2n1CC(=O)OCC(=O)NCCc1ccccc1 | -0.808
COc1ccc(OCCCC(=O)NCC(C)C)cc1 | 0.365
C=CCSc1nnc2nc3[nH]c4c(C)cccc4c3nn12 | -0.341
O=C(CCn1c(=O)oc2ccccc21)N1CCCCCC1 | 1.2
CC(=O)N1CCN(c2nnnn2-c2ccccc2)CC1 | 0.0604
COc1cc(C)c(-c2[nH]ncc2-c2csc(C)n2)c(O)c1 | 0.00339
CCOC(=O)c1cn(CC(=O)Nc2ccc(C)cc2)nn1 | 0.247
Cc1nn(-c2ccccc2)c(C)c1C(=O)Nc1nnc(-c2ccco2)o1 | 0.755
CCOC(=O)Nc1cccc(Nc2ccccc2)c1 | -0.654
Cc1cc(C)n(-c2nc3ccccc3nc2Nc2ccc3[nH]c(=O)[nH]c3c2)n1 | -0.333
N/C(Cc1ccc(Cl)cc1)=N\OC(=O)c1ccccc1 | 0.174
Cc1ccc(OCCOCCNC(C)(C)C)c([N+](=O)[O-])c1 | -0.619
COc1ccc(C2=NN(S(C)(=O)=O)C(c3ccc4nccnc4c3)C2)cc1 (stereo not drawn) | -0.209
Cc1ccc(N(CC(=O)NCCc2ccccc2)S(=O)(=O)c2c(C)noc2C)cc1 | -0.292
CCn1nc(C(=O)Nc2ccc3nc(C)sc3c2)c2ccccc2c1=O | -1.1
